# From the supplement of paper PMC8728848
# Some of the results follow.
# Experiments:
# Test in all cases: glycan array binding signal (z-score within array); higher = stronger binding
# Conditions in all cases: glycan notation: IUPAC condensed, linker removed
# Gal3S6S(b1-4)GlcNAc6S = target: Gal3S6S(b1-4)GlcNAc6S
# Outline: (§1)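 Glycan array data were curated from 3228 arrays in the Consortium for Functional Glycomics database and kept only where the protein sequence was available. Glycan names were converted to IUPAC-condensed notation, and columns mapping to the same glycan were averaged. The binding signal is a within-array Z-score, averaged across arrays of the same protein sequence at different concentrations or buffers and across linkers. Negative Z-scores can be read as non-binding.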
# Gal4S(b1-4)GlcNAc = target: Gal4S(b1-4)GlcNAc
# Outline: as §1
# Gal4S6S(b1-4)GlcNAc = target: Gal4S6S(b1-4)GlcNAc
# Outline: as §1
# Gal6S(b1-4)Glc = target: Gal6S(b1-4)Glc
# Outline: as §1
# Gal6S(b1-4)Glc6S = target: Gal6S(b1-4)Glc6S
# Outline: as §1
# Gal6S(b1-4)GlcNAc = target: Gal6S(b1-4)GlcNAc
# Outline: as §1
# Gal6S(b1-4)GlcNAc6S = target: Gal6S(b1-4)GlcNAc6S
# Outline: as §1
# GalNAc(a1-3)Gal = target: GalNAc(a1-3)Gal
# Outline: as §1
# GalNAc(a1-3)GalNAc = target: GalNAc(a1-3)GalNAc
# Outline: as §1
# GalNAc(b1-3)Gal = target: GalNAc(b1-3)Gal
# Outline: as §1
# [1] = target: GalNAc(b1-3)Gal(a1-4)Gal(b1-4)GlcNAc
# Outline: as §1
# [2] = target: GalNAc(b1-3)Gal(a1-4)Gal(b1-4)GlcNAc(b1-3)Gal(b1-4)Glc
# Outline: as §1
# GalNAc(b1-3)GalNAc = target: GalNAc(b1-3)GalNAc
# Outline: as §1
# GalNAc(b1-4)GlcNAc = target: GalNAc(b1-4)GlcNAc
# Outline: as §1
# [3] = target: GalNAc(b1-4)GlcNAc(b1-2)Man(a1-3)[GalNAc(b1-4)GlcNAc(b1-2)Man(a1-6)]Man(b1-4)GlcNAc(b1-4)GlcNAc
# Outline: as §1
# Glc(a1-4)Glc = target: Glc(a1-4)Glc
# Outline: as §1
# Glc(a1-6)Glc(a1-6)Glc = target: Glc(a1-6)Glc(a1-6)Glc
# Outline: as §1
# Glc(b1-4)Glc = target: Glc(b1-4)Glc
# Outline: as §1
# Glc(b1-6)Glc = target: Glc(b1-6)Glc
# Outline: as §1
# GlcA(b1-3)Gal = target: GlcA(b1-3)Gal
# Outline: as §1
# GlcA(b1-3)GlcNAc = target: GlcA(b1-3)GlcNAc
# Outline: as §1
# GlcA(b1-6)Gal = target: GlcA(b1-6)Gal
# Outline: as §1
# [4] = target: GlcNAc(a1-3)Gal(b1-4)GlcNAc
# Outline: as §1
# [5] = target: GlcNAc(a1-4)Gal(b1-3)GlcNAc
# Outline: as §1
# [6] = target: GlcNAc(a1-4)Gal(b1-4)GalNAc
# Outline: as §1
# [7] = target: GlcNAc(a1-4)Gal(b1-4)GlcNAc
# Outline: as §1
# [8] = target: GlcNAc(a1-4)Gal(b1-4)GlcNAc(b1-3)Gal(b1-4)Glc
# Outline: as §1
# [9] = target: GlcNAc(a1-4)Gal(b1-4)GlcNAc(b1-3)Gal(b1-4)GlcNAc
# Outline: as §1
# [10] = target: GlcNAc(a1-4)Gal(b1-4)GlcNAc(b1-3)Gal(b1-4)GlcNAc(b1-3)Gal(b1-4)GlcNAc
# Outline: as §1
# [11] = target: GlcNAc(a1-4)Gal(b1-4)GlcNAc(b1-3)Gal(b1-4)[Fuc(a1-3)]GlcNAc(b1-3)Gal(b1-4)[Fuc(a1-3)]GlcNAc
# Outline: as §1
# [12] = target: GlcNAc(a1-6)Gal(b1-4)GlcNAc
# Outline: as §1
# [13] = target: GlcNAc(b1-2)Gal(b1-3)GalNAc
# Outline: as §1
# [14] = target: GlcNAc(b1-2)Man(a1-3)[GlcNAc(b1-2)Man(a1-6)]Man(b1-4)GlcNAc(b1-4)GlcNAc
# Outline: as §1
# [15] = target: GlcNAc(b1-2)Man(a1-3)[GlcNAc(b1-2)Man(a1-6)]Man(b1-4)GlcNAc(b1-4)[Fuc(a1-6)]GlcNAc
# Outline: as §1
# GlcNAc(b1-3)Gal = target: GlcNAc(b1-3)Gal
# Outline: as §1
# [16] = target: GlcNAc(b1-3)Gal(b1-3)GalNAc
# Outline: as §1
# GlcNAc(b1-3)Gal(b1-4)Glc = target: GlcNAc(b1-3)Gal(b1-4)Glc
# Outline: as §1
# [17] = target: GlcNAc(b1-3)Gal(b1-4)GlcNAc
# Outline: as §1
# [18] = target: GlcNAc(b1-3)Gal(b1-4)GlcNAc(b1-3)Gal(b1-4)GlcNAc
# Outline: as §1
# GlcNAc(b1-3)GalNAc = target: GlcNAc(b1-3)GalNAc
# Outline: as §1
# GlcNAc(b1-3)Man = target: GlcNAc(b1-3)Man
# Outline: as §1
# [19] = target: GlcNAc(b1-3)[GlcNAc(b1-4)][GlcNAc(b1-6)]GlcNAc
# Outline: as §1
# [20] = target: GlcNAc(b1-3)[GlcNAc(b1-6)]Gal(b1-4)GlcNAc
# Outline: as §1
# [21] = target: GlcNAc(b1-3)[GlcNAc(b1-6)]GalNAc
# Outline: as §1
# [22] = target: GlcNAc(b1-4)Gal(b1-4)GlcNAc
# Outline: as §1
binder,measurement,setting,value
"MRCL (Homo sapiens), NP_872425.1 (protein) ATKVHFPFHTCDLRIDGDCFMVSSEADTYYRARMKCQRKGGVLAQIKSQKVQDILAFYLGRLETTNEVTDSDFETRNFWIGLTYKTAKDSFRWATGEHQAFTSFAFGQPDNHGLVWLSAAMGFGNCVELQASAAFNWNNQRCKTRNRYICQFAQEHISRWGPGS",glycan array binding signal (z-score),Gal3S6S(b1-4)GlcNAc6S,0.67
same,glycan array binding signal (z-score),Gal4S(b1-4)GlcNAc,0.136
same,glycan array binding signal (z-score),Gal4S6S(b1-4)GlcNAc,1.78
same,glycan array binding signal (z-score),Gal6S(b1-4)Glc,0.022
same,glycan array binding signal (z-score),Gal6S(b1-4)Glc6S,0.13
same,glycan array binding signal (z-score),Gal6S(b1-4)GlcNAc,-0.508
same,glycan array binding signal (z-score),Gal6S(b1-4)GlcNAc6S,-0.114
same,glycan array binding signal (z-score),GalNAc(a1-3)Gal,2.44
same,glycan array binding signal (z-score),GalNAc(a1-3)GalNAc,-0.581
same,glycan array binding signal (z-score),GalNAc(b1-3)Gal,-0.038
same,glycan array binding signal (z-score),[1],0.091
same,glycan array binding signal (z-score),[2],2.11
same,glycan array binding signal (z-score),GalNAc(b1-3)GalNAc,-0.074
same,glycan array binding signal (z-score),GalNAc(b1-4)GlcNAc,0.299
same,glycan array binding signal (z-score),[3],1.52
same,glycan array binding signal (z-score),Glc(a1-4)Glc,-0.546
same,glycan array binding signal (z-score),Glc(a1-6)Glc(a1-6)Glc,-0.679
same,glycan array binding signal (z-score),Glc(b1-4)Glc,-0.583
same,glycan array binding signal (z-score),Glc(b1-6)Glc,-0.712
same,glycan array binding signal (z-score),GlcA(b1-3)Gal,-0.721
same,glycan array binding signal (z-score),GlcA(b1-3)GlcNAc,-0.733
same,glycan array binding signal (z-score),GlcA(b1-6)Gal,0.237
same,glycan array binding signal (z-score),[4],-0.59
same,glycan array binding signal (z-score),[5],-0.411
same,glycan array binding signal (z-score),[6],-0.302
same,glycan array binding signal (z-score),[7],-0.672
same,glycan array binding signal (z-score),[8],-0.255
same,glycan array binding signal (z-score),[9],-0.852
same,glycan array binding signal (z-score),[10],1.88
same,glycan array binding signal (z-score),[11],1.11
same,glycan array binding signal (z-score),[12],5.62
same,glycan array binding signal (z-score),[13],-0.64
same,glycan array binding signal (z-score),[14],0.689
same,glycan array binding signal (z-score),[15],-0.537
same,glycan array binding signal (z-score),GlcNAc(b1-3)Gal,-0.774
same,glycan array binding signal (z-score),[16],0.673
same,glycan array binding signal (z-score),GlcNAc(b1-3)Gal(b1-4)Glc,-0.645
same,glycan array binding signal (z-score),[17],-0.603
same,glycan array binding signal (z-score),[18],0.13
same,glycan array binding signal (z-score),GlcNAc(b1-3)GalNAc,-0.74
same,glycan array binding signal (z-score),GlcNAc(b1-3)Man,-0.318
same,glycan array binding signal (z-score),[19],-0.622
same,glycan array binding signal (z-score),[20],-0.681
same,glycan array binding signal (z-score),[21],-0.125
same,glycan array binding signal (z-score),[22],0.191
